The list shows a part of the results.
B1: Q9UKT9 (peptide)
chain: FWCEQCGADFTQKGNLLRHIKL
B2: Q9UKT9 (peptide)
chain: LECNQCGFFCTQKGNLLRHIKL
B3: Q9UKT9 (peptide)
chain: LLCNQCGFLCTQKGNLLRHIKL
B4: Q9UKT9 (peptide)
chain: FECNQCGHHFTQKGNLLRHIKL
B5: Q9UKT9 (peptide)
chain: FHCPICGRMFTQKGNLLRHIKL
B6: Q9UKT9 (peptide)
chain: FQCPICGHQFTQKGNLLRHIKL
B7: Q9UKT9 (peptide)
chain: FKCPVCGAEFTQKGNLLRHIKL
B8: Q9UKT9 (peptide)
chain: FGCNQCGRPFTQKGNLLRHIKL
B9: Q9UKT9 (peptide)
chain: LTCNQCGFACTQKGNLLRHIKL
B10: Q9UKT9 (peptide)
chain: LHCPICGFVCTQKGNLLRHIKL
B11: Q9UKT9 (peptide)
chain: FCCPVCGAYFTQKGNLLRHIKL
B12: Q9UKT9 (peptide)
chain: FSCEVCGACFTQKGNLLRHIKL
B13: Q9UKT9 (peptide)
chain: LCCPICGFPCTQKGNLLRHIKL
B14: Q9UKT9 (peptide)
chain: LQCPICGFPCTQKGNLLRHIKL
B15: Q9UKT9 (peptide)
chain: FVCPICGHGFTQKGNLLRHIKL
B16: Q9UKT9 (peptide)
chain: LMCNQCGFICTQKGNLLRHIKL
B17: Q9UKT9 (peptide)
chain: FYCDQCGADFTQKGNLLRHIKL
B18: Q9UKT9 (peptide)
chain: FGCPICGHFFTQKGNLLRHIKL
B19: Q9UKT9 (peptide)
chain: FGCDQCGAFFTQKGNLLRHIKL
B20: Q9UKT9 (peptide)
chain: FQCPQCGAQFTQKGNLLRHIKL
B21: Q9UKT9 (peptide)
chain: FFCEVCGAYFTQKGNLLRHIKL
B22: Q9UKT9 (peptide)
chain: FRCPICGADFTQKGNLLRHIKL
B23: Q9UKT9 (peptide)
chain: LDCPICGFDCTQKGNLLRHIKL
B24: Q9UKT9 (peptide)
chain: FKCEQCGASFTQKGNLLRHIKL
B25: Q9UKT9 (peptide)
chain: FLCNQCGRYFTQKGNLLRHIKL
B26: Q9UKT9 (peptide)
chain: FECPICGRFFTQKGNLLRHIKL
B27: Q9UKT9 (peptide)
chain: LTCPICGFWCTQKGNLLRHIKL
B28: Q9UKT9 (peptide)
chain: FSCPQCGASFTQKGNLLRHIKL
B29: Q9UKT9 (peptide)
chain: FDCPICGAAFTQKGNLLRHIKL
B30: Q9UKT9 (peptide)
chain: LWCPICGFWCTQKGNLLRHIKL
B31: Q9UKT9 (peptide)
chain: LKCEICGFECTQKGNLLRHIKL
B32: Q9UKT9 (peptide)
chain: FGCPICGRVFTQKGNLLRHIKL
B33: Q9UKT9 (peptide)
chain: FWCEICGRAFTQKGNLLRHIKL
B34: Q9UKT9 (peptide)
chain: FVCPICGAMFTQKGNLLRHIKL
B35: Q9UKT9 (peptide)
chain: FSCPICGHCFTQKGNLLRHIKL
B36: Q9UKT9 (peptide)
chain: FDCEQCGAHFTQKGNLLRHIKL
B37: Q9UKT9 (peptide)
chain: FYCEQCGAFFTQKGNLLRHIKL
B38: Q9UKT9 (peptide)
chain: FYCEICGRHFTQKGNLLRHIKL
B39: Q9UKT9 (peptide)
chain: FMCDVCGAIFTQKGNLLRHIKL
B40: Q9UKT9 (peptide)
chain: FLCEICGRGFTQKGNLLRHIKL
B41: Q9UKT9 (peptide)
chain: FYCPICGADFTQKGNLLRHIKL
B42: Q9UKT9 (peptide)
chain: LNCPICGFYCTQKGNLLRHIKL
B43: Q9UKT9 (peptide)
chain: FECPQCGALFTQKGNLLRHIKL
B44: Q9UKT9 (peptide)
chain: FWCDVCGAIFTQKGNLLRHIKL
B45: Q9UKT9 (peptide)
chain: FHCEICGAEFTQKGNLLRHIKL
B46: Q9UKT9 (peptide)
chain: FECDICGAFFTQKGNLLRHIKL
B47: Q9UKT9 (peptide)
chain: FKCEICGRDFTQKGNLLRHIKL
B48: Q9UKT9 (peptide)
chain: FMCPQCGAPFTQKGNLLRHIKL
B49: Q9UKT9 (peptide)
chain: FTCEQCGADFTQKGNLLRHIKL
B50: Q9UKT9 (peptide)
chain: FTCNQCGAHFTQKGNLLRHIKL

target: no compound (DMSO); experiment: log2 fold change of degron read counts, EGFP-low vs EGFP+ sorted cells; higher = lower degron-EGFP level without compound (poor expression or instability); details: compound: DMSO control; 18 h
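Note: jurkat cells carrying a lentiviral library of mutant zinc finger degrons fused to EGFP plus mCherry, mCherry+ cells FACS sorted, degron abundance counted by next-generation sequencing.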

Row | Sequence | log2 fold change of degron read counts
1 | B1 | -1.05
2 | B2 | 0.418
3 | B3 | 1.16
4 | B4 | -0.622
5 | B5 | -1.19
6 | B6 | -0.0717
7 | B7 | -0.641
8 | B8 | 1.11
9 | B9 | 0.316
10 | B10 | 0.756
11 | B11 | 0.488
12 | B12 | -0.881
13 | B13 | 1.69
14 | B14 | 1.65
15 | B15 | -0.554
16 | B16 | 1.37
17 | B17 | -1.55
18 | B18 | 0.91
19 | B19 | 0.0549
20 | B20 | -0.784
21 | B21 | 0.0203
22 | B22 | 0.305
23 | B23 | 0.521
24 | B24 | -2.68
25 | B25 | 0.565

Row | Sequence | log2 fold change of degron read counts
26 | B26 | 0.528
27 | B27 | 1.32
28 | B28 | -2.44
29 | B29 | -1.23
30 | B30 | 3.05
31 | B31 | -0.97
32 | B32 | 0.202
33 | B33 | -0.145
34 | B34 | 0.707
35 | B35 | -0.462
36 | B36 | -1.1
37 | B37 | -0.143
38 | B38 | -0.31
39 | B39 | -0.445
40 | B40 | -1.94
41 | B41 | -0.043
42 | B42 | 1.45
43 | B43 | -1.11
44 | B44 | 0.889
45 | B45 | -3.12
46 | B46 | -1.62
47 | B47 | -1.35
48 | B48 | -1.03
49 | B49 | -1.13
50 | B50 | -0.627
